Values marked as one replicate rest on one cluster of the flow cell; about a third of the high ones do not repeat.

This data set deals with ATP. In words: switch fluorescence ratio, 500 uM ATP over buffer (Cy3 cluster intensity, sum of 5 cycles each) (fold (ratio)); higher = stronger signal-on switching upon ATP binding; sequences stand for … in TCGTCGGCAGCGTCAGATGTGTATAAGAGACAGTTTTTTTTTTTTTTTTTTTTTTTTT…TC. The conditions noted are these: aptamer strand: ATP DNA aptamer (quencher-CACCTGGGGGAGTATTGCGGAGGAAGG + anchor), 100 nM annealed; ATP concentration: 500 uM; one replicate. The method in brief:
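Five buffer/ATP imaging cycles were run on Cy3-labelled switching-strand clusters on a modified Illumina MiSeq flow-cell, with NaOH stripping and re-annealing between cycles. In each cycle, clusters annealed to 100 nM quencher-labelled ATP aptamer were imaged in selection buffer, then after 15 min with 500 uM ATP at 22 °C. Per cluster, the fluorescence ratio is summed target-cycle over summed buffer-cycle Cy3 intensity, averaged per switch-domain sequence. Only clusters within 100-1000 RFU were kept.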
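Further: ATP exposure 15 min at 22 °C before imaging.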

Turning to CCTACCTGCT, the switch fluorescence ratio worked out at 1.23.
For CGTTCAGGCT, the switch fluorescence ratio was 1.01.
The figure for ATCGTTTGGG is 0.947.
Take TATTGTGGCG: the switch fluorescence ratio was 0.979.
For the sequence TCTAAGGCTT, the switch fluorescence ratio came to 1.03.
For ATGCGGAGTT, the switch fluorescence ratio amounted to 0.975.
For TAGGGGAAGT the value was 0.977; for TAAGCTTCCC, 1.94.
As to TGATTACCTT, the switch fluorescence ratio came to 1.07.
For AATTGGCAGA the value was 1.
For CAGAAACTTG the value was 0.883; for TCGGCTAAGA, 1.06.
For TTGGCCTCCT the value was 1.01; for TCATGGCTGC, 1.02; for TGGAATCTGC, 0.998.
On to GCGCCCGTGT, for which the switch fluorescence ratio was 1.02.
Turning to TAATACCACG, the switch fluorescence ratio was 1.06.
The figure for TCTAGCTCCA is 1.07; for CAGTGCTGGA it is 1.02.
The figure for GATTAGCGT is 1; for CAGGGCACCT it is 1.05; for CTCCTTTAAG it is 1.03.
The figure for CCTGAGGGAG is 1.19; for TCAGATTGCT it is 0.995.
Regarding AAATACTCGC, the switch fluorescence ratio was found to be 1.81.
As for GGGGCGACAG, the switch fluorescence ratio came out at 0.982.
Turning to CCTATGGCTG, the switch fluorescence ratio stood at 1.05.
The figure for TTTCAGACCG is 1; for CGATAGACAG it is 0.982.
As to TGGGCGTGTC, the switch fluorescence ratio amounted to 0.982.
With GGGGGGCACG, the switch fluorescence ratio was 1.04.
For CCACCGAGAC the value was 4.57; for AGGTTGGTTT, 0.996.
For AGGAGGCGTG the value was 0.985.
As to GCGGATTATG, the switch fluorescence ratio came out at 1.04.
For AGGCATTTAC the value was 1.61; for GCGATACCAC, 1.93.
For TAAGGTCGCA the value was 1.02; for TTGCAGTCCC, 1.34; for GCGTGGTTTT, 0.963.
For TCGATCAGTA the value was 0.949; for ACGGTGCTGG, 0.964.
As for TCTTTGCCAT, the switch fluorescence ratio stood at 1.05.
For AGATAGTGGT the value was 0.974; for AGGTGCTCGA, 1.02; for GGGCCGATAT, 0.97.
For TCCGCCCGAA the value was 1.54.
As to TAATGGTGAG, the switch fluorescence ratio was 0.991.
For the sequence TAGAAGGCAA, the switch fluorescence ratio is 1.1.
The figure for ACAGTTGTGA is 0.964; for AGTTCCTTCG it is 2.49.
Regarding AACGTGGGCA, the switch fluorescence ratio is 0.988.
For GTCGCTGAGA the value was 1.
The figure for TGCTATATTG is 0.99; for CGTCAGAAAT it is 1.02; for ATTGGTCAGT it is 0.924.
The figure for CCGGTTTGTA is 0.992; for AGTCTTATAT it is 0.985.
On to ATCAGCCTGC, for which the switch fluorescence ratio turned out to be 1.08.
The figure for TGTGACATTT is 1.04; for GTGAATATAT it is 0.975.
For CATTCCAAG, the switch fluorescence ratio was found to be 1.03.
The figure for ATCGCACTTG is 1.1; for ACGAGTCTTG it is 0.963; for AGAACGTGAC it is 1.34.
The figure for GCCACACTCT is 0.971.

The values above are taken from the supplement of paper PMC10126150.
